Measured values: publication PMC3062594, “Intermolecular masking of the HIV-1 Rev NLS by the cellular protein HIC: Novel insights into the regulation of Rev nuclear import” (Retrovirology, 2011)
No constants are given. Whether binding was seen depends on the method and setting. For part of these data: Binding seen in cells or lysates may run through a third protein. Some binding calls cover weakened binding; strength is not graded here. For part of these data: Where a sequence is shown, tags or fusion partners need not be part of it.

Protein sequences, listed by entry. Tags and fused reporters are not part of them.
UniProt Q92973: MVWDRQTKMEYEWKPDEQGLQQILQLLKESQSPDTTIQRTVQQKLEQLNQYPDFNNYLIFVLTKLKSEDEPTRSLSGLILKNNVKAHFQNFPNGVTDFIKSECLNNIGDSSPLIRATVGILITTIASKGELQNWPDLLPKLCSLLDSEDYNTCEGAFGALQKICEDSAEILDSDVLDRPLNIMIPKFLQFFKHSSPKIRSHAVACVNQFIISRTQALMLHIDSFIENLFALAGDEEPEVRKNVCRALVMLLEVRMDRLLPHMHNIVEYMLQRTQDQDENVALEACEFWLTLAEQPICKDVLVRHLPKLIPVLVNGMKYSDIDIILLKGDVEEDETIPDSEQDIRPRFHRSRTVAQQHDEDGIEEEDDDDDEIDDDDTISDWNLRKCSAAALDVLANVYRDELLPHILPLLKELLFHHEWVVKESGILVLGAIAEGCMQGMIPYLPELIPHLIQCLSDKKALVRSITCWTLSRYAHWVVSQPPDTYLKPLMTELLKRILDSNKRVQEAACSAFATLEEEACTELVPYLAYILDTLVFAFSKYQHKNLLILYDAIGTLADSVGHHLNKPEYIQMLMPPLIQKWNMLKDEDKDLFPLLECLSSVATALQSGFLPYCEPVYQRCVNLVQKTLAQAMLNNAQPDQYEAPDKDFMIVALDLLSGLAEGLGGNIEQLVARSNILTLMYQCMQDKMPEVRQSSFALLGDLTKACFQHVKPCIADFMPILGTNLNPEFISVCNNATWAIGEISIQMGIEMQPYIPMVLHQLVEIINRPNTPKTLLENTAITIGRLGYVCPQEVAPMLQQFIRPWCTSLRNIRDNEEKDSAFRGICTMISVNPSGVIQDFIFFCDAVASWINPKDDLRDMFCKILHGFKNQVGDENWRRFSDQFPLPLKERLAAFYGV

B1: recombinant 6×His-HIC (Human I-mfa domain-Containing protein) (protein, UniProt Q9P1T7-2 1-246)
chain: MSGAGEALAPGPVGPQRVAEAGGGQLGSTAQGKCDKDNTEKDITQATNSHFTHGEMQDQSIWGNPSDGELIRTQPQRLPQLQTSAQVPSGEEIGKIKNGHTGLSNGNGIHHGAKHGSADNRKLSAPVSQKMHRKIQSSLSVNSDISKKSKVNAVFSQKTGSSPEDCCVHCILACLFCEFLTLCNIVLGQASCGICTSEACCCCCGDEMGDDCNCPCDMDCGIMDACCESSDCLEICMECCGICFPS
B2: FLAG-HIC (pFLAG-HIC) (protein, UniProt Q9P1T7-2 1-246)
chain: B1 chain

What was measured:
[1] = target: HA-Rev (pCAGGS-HA-Rev, aa 1-116) (HIV-1) (UniProt P04618); assay: co-IP
[2] = target: GST-YFP-RevNLS (aa35-46) (HIV-1) (UniProt P04618); assay: pull-down; both purified
[3] = target: GST-YFP-Rev (aa1-116) (HIV-1) (UniProt P04618); assay: pull-down; both purified
[4] = target: GST-YFP-Rev (aa1-116) (HIV-1) (UniProt P04618); assay: pull-down; purified recombinant HIC incubated with immobilised GST-YFP (control) and GST fusion proteins (bait); eluted, SDS-PAGE; HIC detected by Western blot; both purified
[5] = target: GST-YFP-RevΔN1 (aa35-116) (HIV-1) (UniProt P04618); assay: as above
[6] = target: GST-YFP-RevΔN2 (aa46-116) (HIV-1) (UniProt P04618); assay: as above

Row | Molecule | binding [1] | binding [3] | also measured
1 | FLAG-HIC (144-246) (from UniProt Q9P1T7-2 144-246) (domain or fragment) | binds | – | –
2 | FLAG-HIC (2-144) (from UniProt Q9P1T7-2 2-144) (domain or fragment) | no binding | – | –
3 | recombinant transportin C-His (from UniProt Q92973 1-898) | – | binds | binding [2]: binds
4 | B1 | – | binds | binding [4]: binds; binding [5]: binds; binding [6]: no binding
5 | B2 | binds | – | –
